From PubChem BioAssay AID651820 (National Center for Advancing Translational Sciences (NCATS), 2012)
Hit rate of the full screen: of about 340,000 compounds, about 12,000 (3.5%) were called active. This list was built around the results that the source calls inconclusive (neither active nor inactive); the mix of calls is not that of the screen. The call rests on the fitted dose curve; in most records, active means well fitted inhibition curve with a large enough effect; inconclusive means small, poorly fitted or top-dose-only effect, or another doubt; inactive means no such curve, though single readings can be large or run the other way. Potencies of inconclusive entries are left out as doubtful fits.

Experiment: qHTS Assay for Inhibitors of Hepatitis C Virus (HCV)
Details: Huh7.5.1 HCVcc-Cre (HCVcc is cell-culture hepatitis C virus) infection, luciferase reporter, 44 h; activity change, negative = inhibition: at 41.8 µM (top of the series) unless noted
Summary of the method: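 Cells (1,000/well) were plated 4 h before compound, then infected with HCVcc-Cre virus (~0.5 moi). After 44 h further culture, infection was read as luciferase luminescence following a 15 min substrate incubation at room temperature.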
On the % scale 0 is the no-effect control and ±100 the full control effect; potency means the concentration at half of the fitted maximal effect; tags describe the fitted curve by direction and shape.

SMILES	Potency	activity change, negative = inhibition
CC(C)(CO)NC(=O)Nc1ccc(Cl)c(Cl)c1	inconclusive [inhibitor, single point]	
CC(CNC(=O)CN1C(=O)NC2(CCOc3ccccc32)C1=O)c1ccccc1 (configuration not stated)	inactive	
COc1cc(C(=O)Nc2ccc3c(c2)OCCO3)ccc1OC(F)F	inconclusive [inhibitor, full curve, poor fit]	
O=[N+]([O-])c1ccc2[nH]nc(-c3ccccc3)c2c1	inconclusive [inhibitor, single point]	
Cc1ccc(NC(=O)CC2Oc3ccc(C)cc3NC2=O)cc1 (configuration not stated)	inactive	
Cn1cccc1-c1cc(C(=O)N2CCc3c([nH]c4ccccc34)C2c2ccccn2)[nH]n1 (configuration not stated)	inactive	
CCN(CC)S(=O)(=O)c1ccc(NC(=O)CSc2nc3nc(C)cc(C)c3c(=O)[nH]2)cc1	inactive	
Cc1ccc2nc(N3CCN(S(=O)(=O)c4ccc(C)c(Cl)c4)CC3)c(C#N)cc2c1	inactive	
O=C1CN(C(=O)COc2c(F)c(F)cc(F)c2F)c2ccccc2N1	inactive	
CN1CCN(c2nc(C(N)=O)cc(-c3ccccc3)n2)CC1	inconclusive [inhibitor, partial curve]	
COC(=O)c1ccc2c(c1)SC1=C(CCCC1=O)N2	inconclusive [inhibitor, single point]	
CC(=O)c1ccc(-n2c(CCC(=O)O)ccc2-c2ccccc2)cc1	inactive	
N#CC1=C(N)SC(N)=C(C#N)C1c1c(Cl)cccc1Cl	inconclusive [inhibitor, single point]	
COc1ccc(/C=C(\NC(=O)c2ccc(OC)c(OC)c2)C(=O)N2CCN(C)CC2)cc1	inconclusive [inhibitor, full curve, poor fit]	
Nc1nnnn1/N=C/C=C/c1ccccc1	inactive	
CCc1nnc(NC(=O)CCC(=O)N2CCN(c3cc(C)ccc3C)CC2)s1	inconclusive [inhibitor, single point]	
COc1cc(/C=N/NC(=O)COc2ccc(Cl)cc2)ccc1OS(=O)(=O)c1ccc(C)cc1	active: 11.2 µM	
Cc1ccc(S(=O)(=O)Nc2ccc(Cl)cc2)cc1NC(=O)c1cc2c(s1)CCCC2	inconclusive [inhibitor, single point]	
CCN1C(=O)c2ccccc2S(=O)c2ccc(C(=O)NC3CC3)cc21 (configuration not stated)	inconclusive [inhibitor, single point]	
COc1cc(/C=N/O)cc(Br)c1OCc1cccc(Cl)c1	inconclusive [inhibitor, single point]	
Cc1cc(C(=O)CSc2ccc(F)cc2)cc(C)c1O	inconclusive [inhibitor, single point]	
Cc1cccc(-n2nnc(C(=O)NC3CCCc4ccccc43)c2N)c1 (configuration not stated)	inconclusive [inhibitor, single point]	
Cc1ccc2oc(=O)cc(CN3CCCCC3)c2c1	inconclusive [inhibitor, partial curve, poor fit]	
Cc1ccc(C2=NCCn3c2c2ccc(C(F)(F)F)cc2[n+]3[O-])cc1	inconclusive [inhibitor, single point]	

SMILES	Potency	activity change, negative = inhibition
Cc1ccc(-c2n[nH]c(=O)c3ccccc23)cc1S(=O)(=O)N(C)CCO	inconclusive [inhibitor, partial curve, poor fit]	
O=[N+]([O-])c1cnccc1Nc1cccc(F)c1	inconclusive [inhibitor, single point]	
COc1ccc(NS(=O)(=O)c2ccc(-c3coc(C)n3)cc2)cc1OC	inconclusive [inhibitor, full curve]	
Cc1ccc(-c2cc(C(=O)OCC(=O)N(C)c3c(N)n(Cc4ccccc4)c(=O)[nH]c3=O)c3ccccc3n2)o1	inactive	
Cc1cccc(NC(=O)CCCn2c(=S)[nH]c3ccccc3c2=O)c1	inactive	
Nc1nn(-c2ccccc2)c2ccc([N+](=O)[O-])cc12	inactive	
Cc1ccc(S(=O)(=O)N2CCN(C3CCN(Cc4ccccc4)CC3)CC2)cc1	inactive	
CCc1nc2ccc(C(=O)Nc3ccc4c(c3)OCO4)cc2nc1CC	active: 2 µM	
COc1cc(-c2cc(C(F)(F)F)n3ncc(C(=O)O)c3n2)cc(OC)c1OC	inconclusive [inhibitor, single point]	
Fc1ccc(COc2ccc3ccccc3c2CNc2nn[nH]n2)cc1	inactive	
O=C(/C=C/c1ccco1)Nc1cccc(NC(=O)/C=C/c2ccco2)n1	inconclusive [inhibitor, full curve, poor fit]	
Cc1ccc(Cn2nc(C)c(NC(=O)C3CC3)c2C)cc1	inactive	
CC(C)(C)c1nnc(NC(=O)C2c3ccccc3Oc3ccccc32)s1	inconclusive [inhibitor, partial curve]	
CCOC(=O)c1ccc(NC(=O)c2cccc(S(=O)(=O)N3CCOCC3)c2)cc1	active: 3.55 µM	
COc1ccccc1CNS(=O)(=O)c1cc(C(=O)NCc2ccccn2)c(Cl)cc1Cl	inactive	
CC(=O)Nc1cc2c(cc1C(=O)c1ccc(C)cc1)OCCO2	inactive	
Cc1cccc2cc(CN(Cc3ccco3)C(=O)c3ccncc3)c(=O)[nH]c12	inconclusive [inhibitor, single point]	
Cc1cccc(NC(=O)CN2C(=O)N/C(=C/c3ccc(C)o3)C2=O)c1	inactive	
CNC(=S)N1N=C(c2ccc(Br)cc2)CC1c1ccc(Br)cc1 (configuration not stated)	inconclusive [inhibitor, single point]	
CC1CCCC(NC(=O)CN2CCN(S(=O)(=O)c3ccc(Br)s3)CC2)C1C (configuration not stated)	inactive	
CCCn1c(=O)c(C(=O)NCCc2ccc(OC)cc2)c(O)c2ccccc21	active: 12.6 µM	
CC1=C(C(=O)Nc2ccccc2)C(c2ccc(C)cc2)N=C(Nc2nc3ccccc3o2)N1 (configuration not stated)	inactive	
COc1ccc(S(=O)(=O)Nc2cccc(-c3ccc4nncn4n3)c2)c(OC)c1		inconclusive: -73% [inhibitor]
O=C(CSCc1ccc(Br)cc1)Nc1ccc(S(=O)(=O)N2CCCCCC2)cc1	inconclusive [inhibitor, single point]	

SMILES	Potency	activity change, negative = inhibition
Cn1cc(CNCc2ccc(-n3cccn3)cc2)c(-c2ccccc2F)n1	inconclusive [inhibitor, single point]	
Cc1ccc(NC(=O)C(C)OC(=O)c2ccc(NS(=O)(=O)c3ccc(F)c(F)c3)cc2)cc1 (configuration not stated)	inconclusive [inhibitor, single point]	
Cc1ccnc(NC(=O)c2ccc([N+](=O)[O-])o2)c1	inconclusive [inhibitor, single point]	
CN(c1ccccc1)S(=O)(=O)c1cccc(NC(=O)CCNC(=O)c2ccc(Cl)cc2)c1	inconclusive [inhibitor, single point]	
O=C(Nc1ccccc1Oc1cccnc1)C1CCCN(C/C=C/c2ccccc2)C1 (configuration not stated)	inconclusive [inhibitor, partial curve]	
CC(CN1C(C)CCCC1C)OC(=O)c1ccc(F)cc1 (configuration not stated)	inactive	
CN(CC(=O)Nc1ccccc1Br)CC(=O)Nc1ccccc1C(F)(F)F	inactive	
C[C@]12c3[nH]c4ccc(Cl)cc4c3CCN1C(=O)[C@@H](CC(=O)NCc1cccc(C(F)(F)F)c1)C[C@@H]2C(=O)N1CCOCC1	active: 7.08 µM	
Cc1ccc(CN(Cc2cc3cc4c(cc3[nH]c2=O)OCCO4)Cc2nnnn2Cc2ccco2)cc1	inconclusive [inhibitor, single point]	
COc1ccc(-c2cc(CCCC(=O)NCCc3ccccc3)no2)cc1	inactive	
N#C/C(=C\c1ccc(Sc2ccc(Cl)cc2)o1)c1nc2ccccc2[nH]1	inconclusive [inhibitor, single point]	
Cc1ccc(S(=O)(=O)NCCC(c2ccccc2)c2ccco2)cc1 (configuration not stated)	inconclusive [inhibitor, single point]	
Cc1ccc(S(=O)(=O)N2CCC(=O)N(CCOCc3ccc(Cl)cc3)CC2)cc1	inconclusive [inhibitor, partial curve]	
O=C(OCC#CCSc1nc2ccccc2o1)c1cc2ccccc2o1	inactive	
CCC(CO)Oc1cc(NC(=O)c2ccccc2)c2ncn(C(C)C)c2c1 (configuration not stated)	inconclusive [inhibitor, partial curve]	
CN1C(CC(=O)Nc2ccc(Br)cc2)c2ccccc2CC1(C)C (configuration not stated)	inconclusive [inhibitor, partial curve]	
Cc1onc(-c2ccccc2)c1C(=O)Nc1nc(-c2cc(F)ccc2F)cs1	inconclusive [inhibitor, partial curve]	
CC(C)(C)OC(=O)C(Cl)(C(=O)OC(C)(C)C)c1ccc2nnnn2n1	inconclusive [inhibitor, single point]	
O=C(N/N=C\c1ccc([N+](=O)[O-])s1)C1COc2ccccc2O1 (configuration not stated)	active: 10 µM	
CCCCOc1ccccc1NC(=O)C=C(C)C	inconclusive [inhibitor, single point]	
CCN(CC)c1ccc(CNCCc2ccc(F)cc2)cc1	inconclusive [inhibitor, single point]	
Cc1cccc(CN2CCN(Cc3ccc(Cl)cc3)CC2)c1	active: 6.31 µM	
Cc1ccc(OCCn2c(C)nc3ccccc32)cc1	inconclusive [inhibitor, single point]	
Cc1ccc(-n2nc3ccc(N)cc3n2)cc1	inconclusive [inhibitor, partial curve]	
